“And” between values parts separate entries of the source, which are not always exact repeats. Identical values can stand only once. Counter-ions that a name gives are not always drawn. ± gives the standard deviation of the averaged measurements. Over roughly 3,200 compounds, “nuclei count (viability) relative to DMSO” has its median near 99; the lowest 2% begin near 16. The list shows a part of the results.

For this assay, the system named is U2OS. Nature of the assay: nuclei count (viability) relative to DMSO (% of DMSO); higher = more viable cells. The settings on record: 10 µM; 24 h. How it is done: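 Primary image-based screen in U2OS cells: compounds at 10 uM for 24 h, then a 1 h o-propargyl-puromycin (OPP) pulse, click labelling, and high-throughput microscopy. Mean cytoplasmic OPP intensity and nuclei count were normalised to DMSO wells within each plate (DMSO = 100) and averaged over triplicate plates.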
`CCCCCCCCCCCCCCSCC(=O)O` [Tetradecylthioacetic acid] registered a nuclei count of 98.5.
Regarding `CCc1cc2c(c(CC)n1)CCC(=O)N2Cc1ccc(-c2ccccc2-c2nn[nH]n2)cc1` [ZD 7155 hydrochloride], the nuclei count came to 102.
The value for `C#CCN(C)CCCOc1ccc(Cl)cc1Cl` [Clorgyline hydrochloride] was 92.7; that for `CC(C)(CO)Cc1cc(C(C)(C)C)c(O)c(C(C)(C)C)c1` was 103; that for `O=C(O)CN(CCN(CC(=O)O)CC(=O)O)CCN(CC(=O)O)CC(=O)O` [Pentetic acid] was 105.
Compound `CC(C(=O)Nc1cccc(/N=C/c2c(O)ccc3ccccc23)c1)c1ccccc1` (stereo not drawn) [Salermide] displayed a nuclei count of 101.
`CC(C)NCC(O)c1cc(O)cc(O)c1` (stereo not drawn) [Metaproterenol sulfate, orciprenaline sulfate]: the nuclei count is 108.
For `O=[N+]([O-])c1cc2nc(O)c(O)nc2cc1[N+](=O)[O-]`, the nuclei count stood at 106.
The value for `C[C@@]1(c2cc(-c3cncnc3)c(F)cc2F)CCSC(N)=N1` was 108; that for `CCc1cnn2c(NCc3ccc[n+]([O-])c3)cc(N3CCCC[C@H]3CCO)nc12` was 35.11 ± 0.057; that for `Cn1c(=O)c2c(ncn2CCO)n(C)c1=O` [Etofylline] was 108.
In the case of `COC(C)(C)CCCC(C)C/C=C/C(C)=C/C(=O)O` (stereo not drawn) [Methoprene acid], the nuclei count worked out at 105.
Consider `COc1nc(N)nc2c1ncn2[C@@H]1O[C@H](CO)[C@@H](O)[C@@H]1O` [Nelarabine (Arranon)], for which the nuclei count stood at 110.
As to `CN(C)CCCn1cc(C2=C(c3c[nH]c4ccccc34)C(=O)NC2=O)c2ccccc21`, the nuclei count is 55.6 and 47.3.
Regarding `OC[C@H]1O[C@H](O[C@H]2O[C@H](CO)[C@@H](O)[C@H](O)[C@H]2O)[C@H](O)[C@@H](O)[C@@H]1O` [Trehalose], the nuclei count is 107.
The value for `CN/C(=N\c1ccc(C2=NNC(=O)CC2C)cc1)NC#N` (stereo not drawn) [Siguazodan] was 99; that for `O=C(Nc1cccc(Nc2ncc(Br)c(NCCc3cnc[nH]3)n2)c1)N1CCCC1` was 41.4 ± 1.2.
For the compound `COc1ccccc1N1CCN(CCCNc2cc(=O)n(C)c(=O)n2C)CC1` [Urapidil hydrochloride], the nuclei count was 108 ± 5.5.
The compound `Oc1cc2c(c(Cl)c1O)CCNCC2c1ccccc1` (stereo not drawn) gave a nuclei count of 91.2.
Consider `CC(C)=CCC/C(C)=C/CC/C(C)=C/CC/C(C)=C/CO` [Geranylgeraniol], for which the nuclei count came out at 94.4.
In the case of `CCN(CC)Cc1cc(Nc2ccnc3cc(Cl)ccc23)ccc1O` [Amodiaquin dihydrochloride dihydrate] it was 90.5.
Turning to `COCC(=O)O[C@]1(CCN(C)CCCc2nc3ccccc3[nH]2)CCc2cc(F)ccc2[C@@H]1C(C)C` [Mibefradil dihydrochloride], the nuclei count was 81.7.
Regarding `CCC(=O)OCC(=O)[C@@]1(OC(=O)CC)[C@@H](C)C[C@H]2[C@@H]3CCC4=CC(=O)C=C[C@]4(C)[C@@]3(Cl)[C@@H](O)C[C@@]21C` [Beclomethasone dipropionate], the nuclei count was 107.
The compound `CCC(=O)OCC(=O)[C@@]1(OC(=O)CC)[C@@H](C)C[C@H]2[C@@H]3CCC4=CC(=O)C=C[C@]4(C)[C@@]3(Cl)[C@@H](O)C[C@@]21C` [Beclomethasone dipropionate (Beclometasone dipropionate)] came in with a nuclei count of 112.
In the case of `OC[C@H]1O[C@@H](n2cnc3c2N=CNC[C@H]3O)C[C@@H]1O` [Pentostatin] it was 106; in that of `CN(C)c1ccccc1CN1CCCN(Cc2ccccc2N(C)C)C1c1ccncc1`, 101.
The value for `O=c1c2ccccc2nc2n1CCc1c-2[nH]c2ccccc12` [Rutaecarpine (Rutecarpine)] was 91.4; that for `COc1ccc2[nH]c(C(=O)c3ccccc3)cc2c1` was 20.8; that for `O=C(/C=C/C=C/c1ccc2c(c1)OCO2)N1CCCCC1` [Piperine (1-Piperoylpiperidine)] was 104.
In turn, `O=C(Nc1cccc2cccnc12)c1ccc(N2C(=O)[C@@H]3[C@H](C2=O)[C@@H]2C=C[C@H]3C2)cc1` [endo-IWR 1] showed a nuclei count of 102.
`CCCCc1nc(Cl)c(CO)n1Cc1ccc(-c2ccccc2-c2nnn[nH]2)cc1` [Losartan] yielded a nuclei count of 96.2.
Consider `CC1(C)S[C@@H]2[C@H](NC(=O)Cc3ccccc3)C(=O)N2[C@H]1C(=O)O` [Benzylpenicillin sodium], for which the nuclei count came out at 98.6.
`CC1(C)S[C@@H]2[C@H](NC(=O)Cc3ccccc3)C(=O)N2[C@H]1C(=O)O` [Benzathine benzylpenicillin] had a nuclei count of 81.7.
In the case of `Cc1nc2n(c(=O)c1CCN1CCC(c3noc4cc(F)ccc34)CC1)CCCC2O` (stereo not drawn) [Paliperidone (Invega)] it was 102; in that of `CCN(CC)CCNC(=O)COc1ccc(OC)cc1` [Mefexamide hydrochloride], 114; in that of `Clc1ccc(C(Cn2ccnc2)OCc2csc3c(Cl)cccc23)c(Cl)c1` (stereo not drawn) [Sertaconazole nitrate], 93.7.
As for `C=CCn1c(=O)c2cnc(Nc3ccc(N4CCN(C)CC4)cc3)nc2n1-c1cccc(C(C)(C)O)n1`, the nuclei count came out at 25.1.
For the compound `CC(=O)OCC1=C(C(=O)O)N2C(=O)[C@@H](NC(=O)Cc3cccs3)[C@H]2SC1` [Cephalothin sodium salt], the nuclei count was 100.
Consider `O=C1CCC(N2C(=O)c3ccccc3C2=O)C(=O)N1` (stereo not drawn) [Thalidomide], for which the nuclei count worked out at 103 ± 10.
`O=C1NCCN1CCN1CCC(c2cn(-c3ccc(F)cc3)c3ccc(Cl)cc23)CC1` [Sertindole]: the nuclei count stood at 75.3.
In turn, `CNCCCN1c2ccccc2CCc2ccccc21` [Desipramine hydrochloride] came in with a nuclei count of 105.
On to `O=C1OC(CN2CCOCC2)CN1/N=C/c1ccc([N+](=O)[O-])o1` (stereo not drawn) [Furaltadone hydrochloride], for which the nuclei count is 98.5.
The value for `Cc1ccc(-c2c(-c3nn(C)c4ncnc(N5CC[C@H](N6CCCCC6)C5)c34)cnn2C)cc1` was 102; that for `O=C1c2c(O)cc(O)cc2O[C@H](c2cc(O)c(O)c(O)c2)[C@H]1O` [Dihydromyricetin (Ampeloptin)] was 99.5.
Compound `C[C@H]1[C@H](OC(=O)CCC(=O)O)O[C@@H]2O[C@@]3(C)CC[C@H]4[C@H](C)CC[C@@H]1[C@@]24OO3` [Artesunate] returned a nuclei count of 78.9.
In the case of `CN(CCOc1ccc(C[C@H](Nc2ccccc2C(=O)c2ccccc2)C(=O)O)cc1)c1ccccn1` it was 104; in that of `O=C(O)CCNC(=O)c1ccc(/N=N/c2ccc(O)c(C(=O)O)c2)cc1` [Balsalazide Sodium], 105.
Regarding `CCC(C)n1ncn(-c2ccc(N3CCN(c4ccc(OCC5COC(Cn6cncn6)(c6ccc(Cl)cc6Cl)O5)cc4)CC3)cc2)c1=O` (stereo not drawn) [Itraconazole], the nuclei count was found to be 105.
In turn, `CCC(C)n1ncn(-c2ccc(N3CCN(c4ccc(OCC5COC(Cn6cncn6)(c6ccc(Cl)cc6Cl)O5)cc4)CC3)cc2)c1=O` (stereo not drawn) [Itraconazole (Sporanox)] gave a nuclei count of 95.6.
The value for `Cc1cccc(Nc2ccccc2C(=O)O)c1C` [Mefenamic acid] was 89.6.
With `CCOc1cc(N)c(Cl)cc1C(=O)NCC1CN(Cc2ccc(F)cc2)CCO1` (stereo not drawn) [Mosapride citrate], the nuclei count worked out at 104.
In turn, `C[n+]1ccccc1/C=N/O` [Pralidoxime chloride] yielded a nuclei count of 92.8.
`O=C1NC(=O)/C(=C/c2cccc(C(F)(F)F)c2)S1`: the nuclei count was 106 ± 9.4.
As to `Cc1cc(O)c2c(c1)C(=O)c1cc(O)cc(O)c1C2=O` [Emodin], the nuclei count turned out to be 105.
Consider `Cn1cc(-c2ccc3nnc(Sc4ccc5ncccc5c4)n3n2)cn1`, for which the nuclei count was determined as 104.
The value for `Clc1ccc(Nc2nnc(Cc3ccncc3)c3ccccc23)cc1` [Vatalanib] was 90.3.
In turn, `Clc1ccc(Nc2nnc(Cc3ccncc3)c3ccccc23)cc1` [Vatalanib dihydrochloride (PTK787)] returned a nuclei count of 87.
Regarding `COC(=O)c1ccc2c(C(=Nc3ccc(N(C)C(=O)CN4CCN(C)CC4)cc3)c3ccccc3)c(O)[nH]c2c1` [BIBF1120 (Vargatef)], the nuclei count is 103.
As for `CCOC(=O)[C@H](CCc1ccccc1)N[C@@H](C)C(=O)N1Cc2cc(OC)c(OC)cc2C[C@H]1C(=O)O` [Moexipril HCl], the nuclei count is 97.6.
For `CCOC(=O)[C@H](CCc1ccccc1)N[C@@H](C)C(=O)N1Cc2cc(OC)c(OC)cc2C[C@H]1C(=O)O` [Moexipril hydrochloride], the nuclei count is 101.
Consider `CN1CCC(OC(c2ccccc2)c2ccccc2)CC1` [Diphenylpyraline hydrochloride], for which the nuclei count came to 97.5.
Consider `FC(F)(F)c1cccc(-c2noc(-c3cc(-c4ccccc4)c(C(F)(F)F)s3)n2)c1`, for which the nuclei count is 98.2.
With `C/C=C1\[C@H]2C=C(C)C[C@]1(N)c1ccc(=O)[nH]c1C2` [(-)-Huperzine A], the nuclei count was 96.9.
In turn, `CN1CCN(C2CCN(C(=O)Nc3cc(Oc4ccc(NC(=O)C5(C(=O)Nc6ccc(F)cc6)CC5)c(F)c4)ccn3)CC2)CC1` [Golvatinib (E7050)] yielded a nuclei count of 75.5 ± 3.9.
In turn, `Cc1cccc(C(=O)NCN2CCN(c3ccccc3C#N)CC2)c1` registered a nuclei count of 88.6.
For `CN(C)CCCN1c2ccccc2CCc2ccccc21` [Imipramine hydrochloride], the nuclei count worked out at 87.2.
Compound `C[C@H]1COc2c(N3CCN(C)CC3)c(F)cc3c(=O)c(C(=O)O)cn1c23` [Levofloxacin (Levaquin)] displayed a nuclei count of 86.
As to `NC(CO)C(=O)NNCc1ccc(O)c(O)c1O` (stereo not drawn) [Benserazide hydrochloride], the nuclei count was found to be 100.
Consider `CCCC(=O)OCOC(=O)C1=C(C)NC(C)=C(C(=O)OC)C1c1cccc(Cl)c1Cl` (stereo not drawn) [Cleviprex (Clevidipine)], for which the nuclei count was 97.4.
In the case of `CCN(CC)CCCCN1c2ccccc2Oc2ccc(Cl)cc21` [10-DEBC hydrochloride] it was 93.7.
In the case of `NCCC[C@H](N)CC(=O)N[C@H]1CNC(=O)[C@H]([C@H]2C[C@H](O)NC(N)=N2)NC(=O)/C(=C/NC(N)=O)NC(=O)[C@H](CO)NC(=O)[C@H](CO)NC1=O` [Viomycin sulfate] it was 107; in that of `O=c1[nH]cnc2c1ncn2[C@H]1CC[C@@H](CO)O1` [Didanosine], 88.
`CN1CCN(c2ccc(OC(F)(F)F)c(Nc3ncc4c(n3)-c3c(c(C(N)=O)nn3CCO)CC4)c2)CC1` displayed a nuclei count of 25.3.

These data come from the supplement of paper PMC8183993.
